# Experimental data reported in PubChem BioAssay AID488969 (Vanderbilt High Throughput Screening Facility, 2010).
# Over roughly 110,000 compounds, “z-score” has its median near -0.1; the highest 2% begin near 2. Some of the results follow. The source made the active and inactive calls.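 Rule for the calls: active = z-score in the third read window above 3 or below -3; inactive = the rest.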
# Target: Metabotropic glutamate receptor 8 (Rattus norvegicus) (UniProt P70579)
# Test: rat mGluR8 modulators via GIRK flux, primary screen, cell-based, thallium flux, HTS (AID 488969)
# Settings: HEK293 rat mGluR8, GIRK (G protein-gated inwardly rectifying potassium channel) thallium flux, FluoZin2; at 10 µM; stronger effect = higher value; submaximal glutamate (EC20) added with thallium
# Chain of UniProt P70579 (P70579 whole entry, looked up): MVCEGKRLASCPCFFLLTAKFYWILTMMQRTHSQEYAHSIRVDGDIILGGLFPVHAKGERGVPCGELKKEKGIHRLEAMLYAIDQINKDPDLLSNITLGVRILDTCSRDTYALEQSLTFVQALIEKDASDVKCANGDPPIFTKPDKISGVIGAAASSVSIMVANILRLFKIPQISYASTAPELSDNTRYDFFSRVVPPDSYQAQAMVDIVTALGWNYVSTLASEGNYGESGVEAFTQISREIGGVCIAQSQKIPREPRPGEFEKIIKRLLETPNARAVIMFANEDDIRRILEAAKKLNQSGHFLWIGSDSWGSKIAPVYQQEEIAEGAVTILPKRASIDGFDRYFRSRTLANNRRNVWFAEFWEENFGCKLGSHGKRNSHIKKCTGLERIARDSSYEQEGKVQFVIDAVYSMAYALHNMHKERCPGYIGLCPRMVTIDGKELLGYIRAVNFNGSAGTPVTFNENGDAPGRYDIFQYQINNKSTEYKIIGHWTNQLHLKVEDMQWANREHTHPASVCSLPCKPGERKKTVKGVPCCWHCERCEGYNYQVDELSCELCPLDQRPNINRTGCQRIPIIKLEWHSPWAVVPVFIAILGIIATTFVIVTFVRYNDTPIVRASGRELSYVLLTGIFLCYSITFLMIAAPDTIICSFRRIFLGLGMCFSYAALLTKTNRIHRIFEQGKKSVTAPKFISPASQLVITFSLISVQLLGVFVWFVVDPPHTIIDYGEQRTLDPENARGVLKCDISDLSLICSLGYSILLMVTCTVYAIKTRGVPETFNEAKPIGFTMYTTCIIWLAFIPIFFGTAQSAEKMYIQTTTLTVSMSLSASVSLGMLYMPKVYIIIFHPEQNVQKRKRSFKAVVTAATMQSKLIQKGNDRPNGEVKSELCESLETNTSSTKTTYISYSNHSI
row,Structure (SMILES),z-score
1,O=C(NC(Nc1cc(C(F)(F)F)ccc1Cl)C(=O)c1ccccc1)c1ccccc1 (stereo unspecified),-0.142
2,Oc1oc(-c2ccccc2)nc1C=NCc1ccccc1,0.637
3,Cc1ccc(S(=O)(=O)CCC(=O)NCc2ccco2)cc1,-0.231
4,Cn1c(=O)[nH]c(=O)c2c1nc(N1CCCCC1)n2CCCSc1nnnn1-c1ccccc1,-0.187
5,CC(=O)Nc1sc(N/N=C\c2ccco2)nc1-c1cccs1,-0.754
6,Cc1cccn2c(=O)c3cc(C#N)c(=N)n(Cc4cccnc4)c3nc12,-0.055
7,COc1cc(N)ccc1NC(=O)c1cccs1,-0.15
8,Cc1nn(C)c(Oc2cccc(Cl)c2)c1C(=O)Nc1ccc(F)cc1,-0.706
9,Cc1ccc(-c2csc(NC(=S)NC(=O)c3cc4ccccc4o3)n2)cc1,-0.451
10,Clc1ccccc1-c1ccc(/C=N/n2cnnc2)o1,0.334
11,COc1ccc(NC(=O)CSc2nnc(Cc3cccn3C)n2CCc2ccccc2)c(OC)c1,-0.229
12,Cc1ccc(S(=O)(=O)NC(N)=NCCc2ccccc2)cc1C,0.045
13,CC(=O)Nc1ccc(C(=O)CSc2ncn(-c3ccccc3)n2)cc1,0.279
14,O=C(O)C1CCCN1C(=O)Nc1ccc(F)cc1 (stereo unspecified),-0.0272
15,Cc1onc(-c2ccccc2)c1C(=O)Nc1sc2c(c1C#N)CCC(C)C2 (stereo unspecified),0.289
16,COc1ccc(CNC(=O)CSc2nc3c(c(=O)n(C)c(=O)n3C)n2C)cc1,0.0562
17,CN(c1ccccc1C(=O)Nc1ccc(S(=O)(=O)N2CCOCC2)cc1)S(C)(=O)=O,0.219
18,N#Cc1nc(COc2ccccc2)oc1N1CCN(c2cccc(Cl)c2)CC1,active: 3.31
19,Cc1ccc(C(=O)CN2CCC(NC(=O)C3CCCCC3)CC2)cc1,-0.227
20,CCOC(=O)N1CCN(C(=O)CN(C)S(=O)(=O)c2ccc3c(c2)C(C)(C)C(=O)N3C)CC1,-0.193
21,O=C(/C=C/c1cccc([N+](=O)[O-])c1)NCCSCc1cccc(Cl)c1,0.0942
22,COC(=O)c1ccccc1NC(=O)CN(Cc1ccccc1)S(C)(=O)=O,1.15
23,COc1cccc(Sc2ccccc2CN(C)C)c1,-0.139
24,O=C(N/N=C/c1cccn1-c1cccc(C(=O)O)c1)Nc1ccccc1,-0.0979

row,Structure (SMILES),z-score
1,COC(=O)c1sc2nc[nH]c(=O)c2c1C,0.0132
2,C/C(=N/NC(=O)c1ccc(C)s1)c1cccc(NC(=O)COc2ccc(Cl)cc2Cl)c1,-0.333
3,Cn1ccs/c1=N\S(=O)(=O)c1ccc(F)cc1,0.214
4,C=CCn1c(SCC(=O)NCc2ccco2)nc2sc3c(c2c1=O)CCCC3,-0.399
5,COc1cccc(OCCOc2ccccc2OC(C)C)c1,-0.186
6,COc1ccccc1CNC(=O)Cn1cccc1,0.415
7,COc1cc(/C=N/NC(=O)CN2CCCCC2)ccc1OCc1ccc(Br)cc1,0.0725
8,Cc1cccc(NC(=S)N/N=C2/CCCCc3ccccc32)c1,0.797
9,Cc1ccc(-c2nn3c(C)nnc3c3ccccc23)cc1S(=O)(=O)NC(C)c1ccccc1 (stereo unspecified),-0.192
10,Cc1ccc(S(=O)(=O)N2CCOCC2)cc1NC(=O)CSc1nccn1C,-0.0832
11,CCOC(=O)C(C)Sc1ncnc2c1c(-c1ccccc1)cn2-c1ccc(OC)cc1 (stereo unspecified),-0.642
12,Cc1cccc(NC(=O)C2CCCN2C(=O)Oc2ccccc2)c1 (stereo unspecified),-0.133
13,CCOCCN1CCN(c2c(CC)c(C)nc3cc(-c4cc(OC)cc(OC)c4)nn23)CC1,-0.938
14,COC(=O)[C@H](Cc1ccccc1)NC(=O)NCc1ccccc1OC,-0.592
15,Cc1ccc(NC(=S)NNc2ncc(C(F)(F)F)cc2Cl)c(C)c1,2.04
16,CC1=CC(C)(C)N(C(=O)CSc2nnc(N)s2)c2cc(C)c(C)cc21,-0.176
17,COc1ccc2c(c1OC)C(C1c3c(cc4c(c3OC)OCO4)CCN1C)OC2=O (stereo unspecified),-0.849
18,O=C(N/N=C/c1cccnc1)c1ccc(NC(=O)C(c2ccccc2)c2ccccc2)cc1,-0.154
19,CC1=C(C)/C(=N\OS(=O)(=O)c2ccc(C)cc2)C=CC1=O,-0.581
20,Nc1nnc(SCc2cccnc2)s1,-0.161
21,COc1ccccc1NC(=O)Cc1csc(NC(=S)Nc2ccc(C)cc2)n1,-0.139
22,CC1(C)C(C=C(Cl)Cl)C1C(=O)N(Cc1ccc(Cl)cc1)C1CCS(=O)(=O)C1 (stereo unspecified),0.0332
23,Cc1cccc(OCC(=O)NC(=S)Nc2ccc(S(=O)(=O)NC3CCCCC3)cc2)c1,0.114
24,CNC(=S)NNC(=O)COc1ccccc1C,-0.0807

row,Structure (SMILES),z-score
1,CC(C)n1c(SCC(=O)N2c3ccccc3CCc3ccccc32)nc2c1c(=O)n(C)c(=O)n2C,0.0246
2,Cc1cccc(OCCOC(=O)C2CCN(S(=O)(=O)c3cccs3)CC2)c1,-0.0168
3,CCOc1cccc(C(=O)Nc2cccc(C(=O)NC(C)(C)C)c2)c1,-0.278
4,CCn1cc(C(=O)NCC2CCCO2)c(=O)c2cc(S(=O)(=O)N(C)C3CCCCC3)ccc21 (stereo unspecified),-0.421
5,Nc1nc(NCCCN2CCOCC2)nc(Nc2ccccc2)c1[N+](=O)[O-],-0.165
6,Nc1nnc(Cc2c[nH]c3ccccc23)s1,0.101
7,COc1ccc(N2C(=O)CNC2=S)cc1,0.118
8,Cn1c(Cc2ccccc2)nnc1SCC(=O)c1ccc(Br)s1,-0.411
9,COc1ccccc1-n1cnnc1SCC(=O)N1CC(=O)Nc2ccccc21,-0.0356
10,CCc1ccc(NC(=O)c2ccc(F)c(S(=O)(=O)NCC3COc4ccccc4O3)c2)cc1 (stereo unspecified),-0.151
11,CCCCSC1=C(C#N)C(c2ccccc2C)CC(=O)N1 (stereo unspecified),-0.273
12,O=C(CN1CCCCC1)N1CCCc2ccccc21,0.0508
13,O=C(NCc1cccs1)c1ccccc1F,0.00442
14,CCOC(=O)Cn1c(SC)nc2sc3c(c2c1=O)CC(C)(C)OC3,-0.834
15,COc1ccc2nc(NC(=O)c3cnccn3)sc2c1,1.17
16,CCCCN1C(=O)CCC(C(=O)O)C1c1ccccc1 (stereo unspecified),-0.307
17,Cc1ccc(NCCC(=O)c2ccc(Br)cc2)cc1,-0.399
18,Cc1ccc(Nc2n[nH]c(C)c2[N+](=O)[O-])cc1,-0.101
19,COc1cccc(-n2c(SCC(=O)Nc3nccs3)nnc2-c2ccoc2C)c1,-1.42
20,COc1ccc(C(C)=O)cc1CN1CCCCC1,-0.25
21,COc1cccc(C2C(=O)N(C3CCCCC3)CC(=O)N2Cc2ccc(F)cc2)c1 (stereo unspecified),-1.14
22,NC(=O)NCc1ccc(Cl)cc1,0.027
23,O=C(CSc1nnnn1-c1ccc(O)cc1)Nc1cccc(S(=O)(=O)N2CCCC2)c1,active: -4.69
